These results are taken from ChEMBL document CHEMBL4888484, “Replenishing the malaria drug discovery pipeline: Screening and hit evaluation of the MMV Hit Generation Library 1 (HGL1) against asexual blood stage Plasmodium falciparum ,using a nano luciferase reporter read-out” (2022).

Each structure is given as a SMILES string. Out of some 150,000 compounds screened, about 540 (0.36%) showed an effect of 50% or more. Some of the results follow.

This assay deals with Plasmodium falciparum. Put plainly: Primary screen in NF54 nanoGlo assay, in single point, at 2uM, 72h; a lower Z score goes with more inhibition. The assay is classed as functional, Erythrocyte. The settings on record: timepoint 72 hour.
As for `CCOc1cc([C@H]2Nc3ccccc3C(=O)N2c2ccccc2F)ccc1OCc1ccccc1Cl`, the “% Inhibition” value is on record as -7% and the Z score worked out at 0.89.
The matching figures for `Cc1cc(C(=O)N2CCC[C@@H]2Cc2c(F)cccc2Cl)cc(O)n1`: -3% and 0.43.
On to `CCS(=O)(=O)c1cccc(-c2nc([C@@H]3CCCO3)no2)c1`, for which the “% Inhibition” value is recorded as -6% and the Z score stood at 0.93.
As to `CC1CCCC(NC(=O)CN2CCN(C(=O)C3C4CCCC43)CC2)C1` (stereo unspecified), the “% Inhibition” value was -9% and the Z score is 0.83.
`Cc1csc(N(C(=O)c2ccoc2C)C2CC2)n1`: the “% Inhibition” value was -6% and the Z score worked out at 0.81.
Taken in the same sequence, the figures for `CCCc1cc(C(=O)N2CCN(C)[C@]3(CCC(=O)N(CC)CC3)C2)n(C)n1` were -7% and 1.27.
On to `Cc1ccc(O[C@H]2CCOC[C@H]2NC(=O)CCCn2ccnc2)cn1`, for which the “% Inhibition” value is on record as -13% and the Z score stood at 1.53.
Taken in the same sequence, the figures for `C[C@H](NC(=O)Nc1nc(C(C)(C)C)ns1)C1=CCN(C)CC1` were -5% and 0.9.
As for `C#CCOc1cc(CNC(=O)C2=CCCCC2)ccc1OC`, the “% Inhibition” value is -9% and the Z score stood at 0.91.
For `Cc1ccc(C)c(-c2cc(C(=O)Nc3sc4c(c3C#N)CC[C@H](C)C4)c3ccccc3n2)c1`, the “% Inhibition” value is 8% and the Z score is given as -0.94.
Regarding `O=C(NCCc1cn2cccnc2n1)c1cn(C2CCCCC2)nn1`, the “% Inhibition” value worked out at 0% and the Z score is given as -0.04.
`Cn1c(CN2C[C@@H]3CC[C@H]2CN(Cc2ccncc2)C3)nc2ccccc21`: the “% Inhibition” value is -1% and the Z score was 0.14.
For `Cc1nnnn1Cc1nc2ccccc2s1`, the “% Inhibition” value is reported as -19% and the Z score came out at 3.03.
Taken in the same sequence, the figures for `CC(=O)N1CCOCC1C(=O)NC1CCCC1c1ccc(F)cc1` (stereo unspecified) were 0% and 0.01.
As for `CN1CC[C@](C)(CNC(=O)c2ccc(OCc3ccccc3F)cc2)C1`, the “% Inhibition” value is recorded as -10% and the Z score stood at 1.85.
Taken in the same sequence, the figures for `Cc1cc(C)n2ncc(CN(Cc3noc(C)n3)C(C)C)c2n1` were 2% and -0.17.
For the compound `O=C(NCCc1ccc(Cl)cc1)c1nnc(Cc2ccc(F)cc2)o1`, the “% Inhibition” value worked out at 12% and the Z score was -1.94.
As for `Cc1cc(C)cc(CCC(=O)Nc2c(N(C)C)nc[nH]c2=O)c1`, the “% Inhibition” value was -14% and the Z score is on record as 1.25.
Consider `CN(CC1CC1)c1ccc(S(C)(=O)=O)cc1C(F)(F)F`, for which the “% Inhibition” value was -4% and the Z score is given as 0.63.
Take `N#CCCCn1nnnc1-c1ccncc1`: the “% Inhibition” value came to 0% and the Z score is recorded as -0.04.
Turning to `Cc1ccc(-n2nc(C(=O)NCC3CC3)c(=O)n(Cc3cccc(Cl)c3)c2=O)cc1`, the “% Inhibition” value was -1% and the Z score stood at 0.18.
Turning to `CCc1nnc(CNC(=O)[C@H](C)c2ccccc2F)s1`, the “% Inhibition” value is 1% and the Z score is on record as -0.13.
On to `COc1ccc2c(c1)N1CCN(c3cnccn3)CC1C(C(=O)NCc1ccccc1F)C2` (stereo unspecified), for which the “% Inhibition” value came out at 2% and the Z score is -0.22.
For `Cc1cc(C)cc(C(=O)N2CCN(C(=O)N(C)C)[C@H]3CS(=O)(=O)C[C@H]32)c1`, the “% Inhibition” value is listed as -3% and the Z score is on record as 0.28.
As for `CCn1cc(C2=NO[C@H](C(=O)Nc3ccc(C)c(F)c3)C2)c(C)n1`, the “% Inhibition” value is recorded as -13% and the Z score is 1.56.
`O=C(Nc1ccc(Nc2ccccc2)cc1)c1ccc2c(c1)OCO2`: the “% Inhibition” value was -8% and the Z score is 1.53.
For the compound `CC(C)(C)Cc1ccccc1C(=O)Nc1ncc2c(n1)CCOC2`, the “% Inhibition” value is -11% and the Z score stood at 1.66.
For the compound `CCNC(=O)[C@@H]1C[C@H](NCc2ccc(C(F)(F)F)cc2)CN1Cc1ccccc1`, the “% Inhibition” value is -5% and the Z score came out at 0.59.
`CCS(=O)(=O)Oc1cc(CN(Cc2ccco2)C(=O)C(C)C)ccc1OC`: the “% Inhibition” value is on record as -22% and the Z score turned out to be 3.16.
As for `CN(C[C@H]1CCCOC1)C(=O)Nc1ccc2c(N(C)C)nccc2c1`, the “% Inhibition” value is reported as -6% and the Z score stood at 1.02.
With `CC(C)C1CCCN(C(=O)C2CCCO2)CC1` (stereo unspecified), the “% Inhibition” value was -2% and the Z score was found to be 0.21.
Turning to `Cc1nn(C)cc1N(C(=O)c1cnccn1)[C@@H](C(=O)NC1CCCCC1)c1cccc(F)c1`, the “% Inhibition” value is listed as -7% and the Z score is given as 1.29.
Regarding `COc1ccc(C)cc1Cn1ncc(Br)c1C1CC1`, the “% Inhibition” value is -2% and the Z score is listed as 0.28.
Regarding `Cc1cnn(C2CN(Cc3c(C)noc3C)C2)c1`, the “% Inhibition” value is given as -8% and the Z score is recorded as 0.83.
The matching figures for `CCN1C[C@@H](C(=O)Nc2ccccc2Oc2ccccc2)CC1=O`: -8% and 0.77.
Consider `Cc1cc(C)c2nc(C3C(=O)c4ccccc4C3=O)cc(O)c2c1`, for which the “% Inhibition” value is reported as -16% and the Z score stood at 2.2.
The matching figures for `CCn1cc(C2=NN(c3cc(C)ccc3F)C(=O)C2)cn1`: -10% and 1.78.
Turning to `CCOC(=O)c1cn(Cc2nc(C)cs2)c2nc(C)ccc2c1=O`, the “% Inhibition” value is -23% and the Z score is 4.34.
For `Cc1c(CNC2CCCCCCC2)c(C(=O)O)c(C)n1Cc1c(F)cccc1Cl`, the “% Inhibition” value is -8% and the Z score stood at 1.55.
In the case of `Cc1ccc(CN(Cc2cc(=O)n(C)c(=O)n2C)C[C@H]2CCCO2)o1`, the “% Inhibition” value is given as -1% and the Z score is listed as 0.07.
Take `Cc1cc(F)cc(CN2[C@@H]3CN(C(=O)CCc4ccccc4)C[C@@H]3OCCS2(=O)=O)c1`: the “% Inhibition” value is listed as -10% and the Z score is given as 1.77.
Turning to `CCOc1ccccc1NC(=O)Cn1c(C)ncc(C(=O)NC2CCCC2)c1=O`, the “% Inhibition” value turned out to be 3% and the Z score was -0.42.
Turning to `c1ccc(COc2ccc(Nc3cnc4ccccc4n3)cc2)cc1`, the “% Inhibition” value is recorded as -7% and the Z score was 0.87.
`O=C1CCC(C(=O)N2CCC(c3nc4ccccc4s3)CC2)=NN1`: the “% Inhibition” value was -13% and the Z score came out at 1.81.
In the case of `CN(C)c1ccc(NC(=O)CN(Cc2ccccc2)C(=O)CN2C(=O)C(=O)c3ccccc32)cc1`, the “% Inhibition” value is recorded as 19% and the Z score is on record as -2.33.
In the case of `Cc1cccc(Br)c1C(=O)N[C@H]1CCCn2c(C)nnc21`, the “% Inhibition” value came to 1% and the Z score is on record as -0.23.
For `Cc1ccnc(NC(=O)c2occc2CN2c3ccccc3C[C@@H]2C)n1`, the “% Inhibition” value turned out to be 3% and the Z score was -0.34.
Take `O=C1C[C@H](c2ccc(C(=O)O)cc2)c2snc(-c3ccc(F)cc3)c2N1`: the “% Inhibition” value was 28% and the Z score is -3.16.
In the case of `O=C(Cc1ncccc1F)NC1(CN2CCN(c3ccc(F)cc3)CC2)CC1`, the “% Inhibition” value is on record as -7% and the Z score came to 1.18.
With `COc1ccc(NS(=O)(=O)c2cccc(C(=O)N3CCC3)c2)cc1Br`, the “% Inhibition” value was -4% and the Z score is reported as 0.35.
The matching figures for `Cc1ccc(-c2cc(C(=O)N3CCN(Cc4ccc5c(c4)OCO5)CC3)c(C)[nH]2)cc1C`: -8% and 0.99.
For the compound `O=C(O)[C@H]1CCCN1c1nnc(-c2ccccc2)s1`, the “% Inhibition” value was -15% and the Z score was 1.43.
On to `CC(C)OC(=O)Cn1ncc(=O)c2ccccc21`, for which the “% Inhibition” value was -8% and the Z score came to 1.25.
